Some of the results follow. The energies were worked out here from pooled read counts, against the library average; single values are noisy.
Molecular target: T1, Pho4 (S. cerevisiae) (UniProt P07270)
T1 sequence: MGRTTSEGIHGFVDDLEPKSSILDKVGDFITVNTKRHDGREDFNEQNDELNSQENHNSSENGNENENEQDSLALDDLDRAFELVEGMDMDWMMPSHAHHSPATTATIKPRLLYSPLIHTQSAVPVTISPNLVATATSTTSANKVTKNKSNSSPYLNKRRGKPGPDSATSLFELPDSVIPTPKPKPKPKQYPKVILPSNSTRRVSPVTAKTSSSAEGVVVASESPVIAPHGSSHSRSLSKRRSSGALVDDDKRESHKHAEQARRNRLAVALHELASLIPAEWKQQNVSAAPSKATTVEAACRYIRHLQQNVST
Assay: relative binding free energy (BET-seq); higher = weaker binding
Settings: reference: library average

| Sequence | relative binding free energy |
| --- | --- |
| AGGGACACGTGGGCTA | -0.17 kcal/mol |
| TTAGACACGTGTATTA | -0.01 kcal/mol |
| AACTACACGTGGGTGT | -0.02 kcal/mol |
| TGTGGCACGTGCTTTG | -0.2 kcal/mol |
| GTATACACGTGCGAGG | 0.04 kcal/mol |
| TTTGGCACGTGAGTCA | 0.1 kcal/mol |
| CGTTGCACGTGGGGCG | -0.19 kcal/mol |
| TCTTTCACGTGGATGT | 0.07 kcal/mol |
| TAGGGCACGTGGAGTT | -0.19 kcal/mol |
| GTGACCACGTGGGTTT | -0.14 kcal/mol |
| TAAATCACGTGGCGTT | 0.11 kcal/mol |
| GTGAGCACGTGATGGG | 0.06 kcal/mol |
| TGTTACACGTGGTACT | 0.11 kcal/mol |
| TTTAGCACGTGTGTGA | 0.02 kcal/mol |
| GTATGCACGTGGGGCC | -0.06 kcal/mol |
| CGATGCACGTGTGAGG | 0.07 kcal/mol |
| TCTGTCACGTGGGACT | 0 kcal/mol |
| GTGCTCACGTGGTCGT | 0.16 kcal/mol |
| GGGCCCACGTGGATGG | -0.04 kcal/mol |
| TCTTTCACGTGGGGAG | 0.12 kcal/mol |
| AGTTACACGTGGGGTT | 0.04 kcal/mol |

| Sequence | relative binding free energy |
| --- | --- |
| CATGACACGTGGGGTA | -0.09 kcal/mol |
| TGTACCACGTGGCGTG | -0.16 kcal/mol |
| GGTGGCACGTGCAATA | 0.04 kcal/mol |
| GATCGCACGTGGGATT | -0.03 kcal/mol |
| GGGAACACGTGGTAAG | 0.16 kcal/mol |
| TAGAGCACGTGCATGT | -0.09 kcal/mol |
| GCTGGCACGTGTTGGA | 0 kcal/mol |
| CGGGGCACGTGGCTGA | -0.31 kcal/mol |
| TTGGTCACGTGGGTTC | -0.06 kcal/mol |
| TAGTGCACGTGAGTGG | 0.18 kcal/mol |
| AATGCCACGTGAGTTG | 0.07 kcal/mol |
| ATGTACACGTGTTATG | 0.08 kcal/mol |
| AAGTTCACGTGTTACT | 0.33 kcal/mol |
| GGCAGCACGTGCGTGT | -0.11 kcal/mol |
| TCGTGCACGTGGAATG | 0.06 kcal/mol |
| CGTCTCACGTGGTGAG | 0.15 kcal/mol |
| AGGTTCACGTGTGGCA | 0.36 kcal/mol |
| GGCCGCACGTGGTTGG | -0.2 kcal/mol |
| GTTGCCACGTGGTAAT | -0.06 kcal/mol |
| ACTCGCACGTGGTGGG | -0.19 kcal/mol |
| TGCTGCACGTGAGCGG | 0.17 kcal/mol |

| Sequence | relative binding free energy |
| --- | --- |
| GTAAACACGTGGGGTT | -0.06 kcal/mol |
| TGTGGCACGTGAAATT | 0.21 kcal/mol |
| GATGACACGTGTGGGG | -0.05 kcal/mol |
| ATGGCCACGTGAGTTG | 0.26 kcal/mol |
| GTAGGCACGTGATTGG | 0.06 kcal/mol |
| ATTATCACGTGTTCTG | -0.01 kcal/mol |
| AGAGGCACGTGTGTTC | 0.04 kcal/mol |
| ATTTTCACGTGTCTAG | 0.29 kcal/mol |
| GCAGACACGTGGGGGC | -0.15 kcal/mol |
| TTCCGCACGTGTTTGG | -0.08 kcal/mol |
| TTTAGCACGTGTTTAG | -0.1 kcal/mol |
| TGAAGCACGTGTAGGT | -0.03 kcal/mol |
| TGGCACACGTGCTTGG | -0.06 kcal/mol |
| TCAGGCACGTGTGGTC | -0.08 kcal/mol |
| ATGTTCACGTGAGTTA | 0.38 kcal/mol |
| ATTGTCACGTGTCTGT | 0.11 kcal/mol |
| AGGGGCACGTGGCGCT | -0.12 kcal/mol |
| TGAGTCACGTGATTTC | 0.29 kcal/mol |
| AAAGTCACGTGGTGTG | 0.08 kcal/mol |
| ATTTTCACGTGATAAT | 0.35 kcal/mol |
| GCTGACACGTGGTCGG | 0 kcal/mol |

— the BET-seq Pho4 binding data (Le et al. 2018)
